Data as given in PubChem BioAssay AID651820 (National Center for Advancing Translational Sciences (NCATS), 2012).
The whole screen tested about 340,000 compounds, of which about 12,000 (3.5%) were called active. Inconclusive results, whose numbers are uncertain, are shown with a selection of clear calls. Calls come from the whole dose curve; as a rule, active = well fitted inhibition curve with a large enough effect; inconclusive = small, poorly fitted or top-dose-only effect, or another doubt; inactive = no such curve, though single readings can be large or run the other way. No potency is given beside an inconclusive call; the fits are too rough.

Test: qHTS Assay for Inhibitors of Hepatitis C Virus (HCV)
Conditions: Huh7.5.1 HCVcc-Cre (HCVcc is cell-culture hepatitis C virus) infection, luciferase reporter, 44 h; series mostly up to 41.8 µM
Outline: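 Seed cells (1,000/well) for 4 h; treat with compound and infect with HCVcc-Cre, moi about 0.5. Incubate 44 h, then detect luciferase activity.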
Potency is the fitted concentration of half-maximal effect; tags give direction and shape of the fitted curve.

| Structure (SMILES) | Potency |
| --- | --- |
| CCOC(=O)C1=C(C)NC(C)=C(C(=O)OCC)C1 | inconclusive [inhibitor, single point] |
| COc1ccc(S(=O)(=O)N2CCCCCC2)cc1N(C)S(=O)(=O)c1ccc(Cl)cc1 | inconclusive [inhibitor, full curve] |
| O=C(NCCC1=CCCCC1)c1cc(S(=O)(=O)N2CCOCC2)ccc1F | inconclusive [inhibitor, single point] |
| Cc1cn(CC(=O)NCCc2ccccn2)c(=O)[nH]c1=O | active: 2.82 µM |
| Cc1ccc(NC(=O)C2=C(O)c3sccc3N(C)S2(=O)=O)cc1 | inactive |
| COc1ccc(/C=N/NC(=O)c2cccc(OC(F)(F)C(F)F)c2)c(OC)c1OC | inconclusive [inhibitor, partial curve] |
| COC(=O)N1CCc2c(sc(NC(=O)C3=COCCO3)c2C#N)C1 | inconclusive [inhibitor, full curve] |
| c1ccc2[nH]c(CCCCc3nc4ccccc4[nH]3)nc2c1 | inactive |
| CC(=O)Nc1ccc(S(=O)(=O)NC2=C(N3CCN(c4ccc(F)cc4)CC3)C(=O)c3ccccc3C2=O)cc1 | inconclusive [inhibitor, single point] |
| COc1ccc(C)cc1NC(=O)CCNC(=O)Cn1cnc2ccccc2c1=O | inconclusive [inhibitor, full curve, poor fit] |
| COc1ccc(OC)c(CCNC(=O)CSc2ccsc2[N+](=O)[O-])c1 | inconclusive [inhibitor, single point] |
| COc1ccc(CNC(=O)C(c2ccc(C)o2)N(C(=O)c2csnn2)c2ccc(C(C)C)cc2)cc1 (stereo unspecified) | inconclusive [inhibitor, single point] |
| O=C(Cn1nc([N+](=O)[O-])nc1Br)NC(c1ccccc1)c1ccccc1 | inconclusive [inhibitor, partial curve] |
| COc1ccc(NC(=S)NCCSc2ccc(Cl)cc2)c(OC)c1 | active: 5.62 µM |
| Cc1cc(C)c(C)c(S(=O)(=O)N2CCN(C(=O)c3cc(S(=O)(=O)N4CCOCC4)ccc3F)CC2)c1C | inconclusive [inhibitor, single point] |
| CCOC(=O)NC1c2ccccc2Oc2ccccc21 | inactive |
| CCOCCCNC(=O)c1cn(C)c2ccc(S(=O)(=O)N3CCCC3)cc2c1=O | inactive |
| OCCNc1nnc(-c2ccccc2)c(-c2ccccc2)n1 | inactive |
| Cc1nc(NC(=O)c2ccccc2)sc1-c1csc(N)n1 | inconclusive [inhibitor, partial curve, poor fit] |
| COc1ccc(C2=CC(c3ccco3)n3ncnc3N2)cc1 (stereo unspecified) | inactive |
| Cc1ccc(C(=O)Nc2cccc(C(=O)NCc3ccco3)c2)cc1 | inconclusive [inhibitor, partial curve] |
| Cc1ccc(/C=C/C(=O)N2CC(C)CC(C)C2)o1 (stereo unspecified) | inconclusive [inhibitor, partial curve] |
| COc1ccc(CNS(=O)(=O)c2ccc(S(=O)(=O)NC3CC3)cc2)cc1 | inactive |

| Structure (SMILES) | Potency |
| --- | --- |
| Cc1nn(-c2ccccc2)c2nc(-c3ccccc3)cc(C(=O)N3CCOCC3)c12 | inconclusive [inhibitor, single point] |
| CCn1c(=O)cc(OCC(=O)N(C)c2ccccc2F)c2ccccc21 | inconclusive [inhibitor, single point] |
| CCC12CCCN3CCc4c(n(c5ccccc45)C(O)(C(=O)OC)C1)C32 (stereo unspecified) | inactive |
| O=C(NCCC1=CCCCC1)C1CCC(CNc2nc(=S)[nH]c3ccccc23)CC1 (stereo unspecified) | inconclusive [inhibitor, single point] |
| O=C(Nc1nnc(/C=C/c2ccccc2)s1)c1ccco1 | inactive |
| CNS(=O)(=O)c1cccc(C(=O)OCc2cc(C(C)=O)ccc2OC)c1 | inconclusive [inhibitor, partial curve] |
| Cc1cccc(/C=N/NC(=O)c2ccc(NC(=O)c3cccc(Cl)c3)cc2)n1 | inconclusive [inhibitor, partial curve] |
| COc1ccccc1Nc1ncccc1[N+](=O)[O-] | inconclusive [inhibitor, single point] |
| O=c1c2cccc3c2c(nn1-c1ccccc1)-c1ccccc1-3 | inconclusive [inhibitor, single point] |
| c1ccc2c(-c3csc(-c4ccncc4)n3)c[nH]c2c1 | inconclusive [inhibitor, partial curve] |
| COc1ccc(C2C(C#N)=C(N)N(N(C)C)C3=C2C(=O)CCC3)cc1 (stereo unspecified) | inactive |
| CCN(C(=O)c1cc2c(=O)[nH]c3ccc(C)cc3c2s1)c1ccc(OC)cc1 | inconclusive [inhibitor, partial curve] |
| COc1ccc(C)cc1NC(=O)c1sc2ncnc(N3CCN(c4ccccn4)CC3)c2c1C | active: 1.41 µM |
| COc1ccc2[nH]c(N=Nc3ccccc3C)c(O)c2c1 | inconclusive [inhibitor, partial curve, poor fit] |
| CC(C)Cn1c(=O)c(C(=O)Nc2cnccn2)c(O)c2ccccc21 | inactive |
| NC(=O)C1CCN(c2nc(C3CC3)nc3c2nnn3Cc2ccccc2Cl)CC1 | inactive |
| Cc1cc(SCC(=O)c2cccs2)nc2ccccc12 | active: 10 µM |
| O=C(/C=C/Nc1ccccc1Oc1ccccc1)c1ccco1 | inconclusive [inhibitor, partial curve] |
| O=C(N/N=C/C(Br)=C\c1ccccc1)c1n[nH]c2c1CCC2 | inconclusive [inhibitor, single point] |
| CSc1ccccc1C(=O)Nc1cc(C)ccc1C | inactive |
| O=C(Cn1c(C(F)(F)F)nc2ccccc21)c1ccc(F)cc1 | inconclusive [inhibitor, single point] |
| O=C(Nc1ccc2ccccc2c1)c1cn(-c2ccccc2)nc1-c1cccs1 | inconclusive [inhibitor, full curve] |
| Cc1ccc(C(=O)Nc2cccc(C(F)(F)F)c2)cc1Nc1cnccn1 | inconclusive [inhibitor, partial curve] |
